# This is one part of the list.
# Key:
# Assay in all cases: glycan array binding signal (z-score within array); higher = stronger binding
# Conditions in all cases: glycan notation: IUPAC condensed, linker removed
# Gal3S(b1-4)GlcNAc6S = molecular target: Gal3S(b1-4)GlcNAc6S
# Outline: (§1)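 Glycan array data were curated from 3228 arrays in the Consortium for Functional Glycomics database and kept only where the protein sequence was available. Glycan names were converted to IUPAC-condensed notation, and columns mapping to the same glycan were averaged. The binding signal is a within-array Z-score, averaged across arrays of the same protein sequence at different concentrations or buffers and across linkers. Negative Z-scores can be read as non-binding.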
# [1] = molecular target: Gal3S(b1-4)[Fuc(a1-3)]Glc
# Outline: as §1
# [2] = molecular target: Gal3S(b1-4)[Fuc(a1-3)]Glc6S
# Outline: as §1
# [3] = molecular target: Gal3S(b1-4)[Fuc(a1-3)]GlcNAc
# Outline: as §1
# [4] = molecular target: Gal3S(b1-4)[Fuc(a1-3)]GlcNAc6S
# Outline: as §1
# Gal3S4S(b1-4)GlcNAc = molecular target: Gal3S4S(b1-4)GlcNAc
# Outline: as §1
# Gal3S6S(b1-4)GlcNAc = molecular target: Gal3S6S(b1-4)GlcNAc
# Outline: as §1
# Gal3S6S(b1-4)GlcNAc6S = molecular target: Gal3S6S(b1-4)GlcNAc6S
# Outline: as §1
# Gal4S(b1-4)GlcNAc = molecular target: Gal4S(b1-4)GlcNAc
# Outline: as §1
# Gal4S6S(b1-4)GlcNAc = molecular target: Gal4S6S(b1-4)GlcNAc
# Outline: as §1
# Gal6P(b1-4)GlcNAc = molecular target: Gal6P(b1-4)GlcNAc
# Outline: as §1
# Gal6S(b1-3)GlcNAc = molecular target: Gal6S(b1-3)GlcNAc
# Outline: as §1
# Gal6S(b1-3)GlcNAc6S = molecular target: Gal6S(b1-3)GlcNAc6S
# Outline: as §1
# Gal6S(b1-4)Glc = molecular target: Gal6S(b1-4)Glc
# Outline: as §1
# Gal6S(b1-4)Glc6S = molecular target: Gal6S(b1-4)Glc6S
# Outline: as §1
# Gal6S(b1-4)GlcNAc = molecular target: Gal6S(b1-4)GlcNAc
# Outline: as §1
# Gal6S(b1-4)GlcNAc6S = molecular target: Gal6S(b1-4)GlcNAc6S
# Outline: as §1
# GalNAc(a1-3)Gal = molecular target: GalNAc(a1-3)Gal
# Outline: as §1
# GalNAc(a1-3)GalNAc = molecular target: GalNAc(a1-3)GalNAc
# Outline: as §1
# [5] = molecular target: GalNAc(a1-3)GalNAc(a1-3)Gal(a1-4)Gal(b1-4)GlcNAc
# Outline: as §1
# [6] = molecular target: GalNAc(a1-3)GalNAc(b1-3)Gal(a1-4)Gal(b1-4)Glc
# Outline: as §1
# [7] = molecular target: GalNAc(a1-3)GalNAc(b1-3)Gal(a1-4)Gal(b1-4)GlcNAc
# Outline: as §1
# GalNAc(b1-3)Gal = molecular target: GalNAc(b1-3)Gal
# Outline: as §1
# [8] = molecular target: GalNAc(b1-3)Gal(a1-4)Gal(b1-4)GlcNAc
# Outline: as §1
# [9] = molecular target: GalNAc(b1-3)Gal(a1-4)Gal(b1-4)GlcNAc(b1-3)Gal(b1-4)Glc
# Outline: as §1
# [10] = molecular target: GalNAc(b1-3)Gal(a1-6)Gal(b1-4)Glc
# Outline: as §1
# GalNAc(b1-3)GalNAc = molecular target: GalNAc(b1-3)GalNAc
# Outline: as §1
# GalNAc(b1-3)GlcNAc = molecular target: GalNAc(b1-3)GlcNAc
# Outline: as §1
# GalNAc(b1-4)Gal(b1-4)Glc = molecular target: GalNAc(b1-4)Gal(b1-4)Glc
# Outline: as §1
# GalNAc(b1-4)GlcNAc = molecular target: GalNAc(b1-4)GlcNAc
# Outline: as §1
# [11] = molecular target: GalNAc(b1-4)GlcNAc(b1-2)Man
# Outline: as §1
# [12] = molecular target: GalNAc(b1-4)GlcNAc(b1-2)Man(a1-3)[GalNAc(b1-4)GlcNAc(b1-2)Man(a1-6)]Man(b1-4)GlcNAc(b1-4)GlcNAc
# Outline: as §1
# [13] = molecular target: GalNAc(b1-4)GlcNAc(b1-3)GalNAc(b1-4)GlcNAc
# Outline: as §1
# GalNAc(b1-4)GlcNAc6S = molecular target: GalNAc(b1-4)GlcNAc6S
# Outline: as §1
# GalNAc(b1-6)GalNAc = molecular target: GalNAc(b1-6)GalNAc
# Outline: as §1
# GalNAc3S(b1-4)GlcNAc = molecular target: GalNAc3S(b1-4)GlcNAc
# Outline: as §1
# GalNAc3S(b1-4)GlcNAc3S = molecular target: GalNAc3S(b1-4)GlcNAc3S
# Outline: as §1
# [14] = molecular target: GalNAc3S(b1-4)[Fuc(a1-3)]GlcNAc
# Outline: as §1
# GalNAc4S6S(b1-4)GlcNAc = molecular target: GalNAc4S6S(b1-4)GlcNAc
# Outline: as §1
# GalNAc6S(b1-4)GlcNAc = molecular target: GalNAc6S(b1-4)GlcNAc
# Outline: as §1
# Glc(a1-4)Glc = molecular target: Glc(a1-4)Glc
# Outline: as §1
# [15] = molecular target: Glc(a1-4)Glc(a1-4)Glc(a1-4)Glc
# Outline: as §1
# Glc(a1-6)Glc(a1-6)Glc = molecular target: Glc(a1-6)Glc(a1-6)Glc
# Outline: as §1
# [16] = molecular target: Glc(a1-6)Glc(a1-6)Glc(a1-6)Glc
# Outline: as §1
# Glc(b1-4)Glc = molecular target: Glc(b1-4)Glc
# Outline: as §1
binder,measurement,setting,value
"AAL (Agrocybe aegerita), Q6WY08 (protein) MQGVNIYNISAGTSVDLAAPVTTGDIVTFFSSALNLNAGAGNPNNTTLNLFAENGAYLLHIAFRLQENVIIFNSRQPDGPWLVEQRVSDVANQFAGIDGKAMVTVFDHGDKYQVVINEKTVIQYTKQISGLTLSLSYNATEETSIFSTVVEAVTYTGLALEHHHHHH",glycan array binding signal (z-score),Gal3S(b1-4)GlcNAc6S,3.66
same,glycan array binding signal (z-score),[1],-0.154
same,glycan array binding signal (z-score),[2],-0.124
same,glycan array binding signal (z-score),[3],-0.124
same,glycan array binding signal (z-score),[4],0.878
same,glycan array binding signal (z-score),Gal3S4S(b1-4)GlcNAc,-0.149
same,glycan array binding signal (z-score),Gal3S6S(b1-4)GlcNAc,-0.14
same,glycan array binding signal (z-score),Gal3S6S(b1-4)GlcNAc6S,-0.139
same,glycan array binding signal (z-score),Gal4S(b1-4)GlcNAc,-0.15
same,glycan array binding signal (z-score),Gal4S6S(b1-4)GlcNAc,-0.149
same,glycan array binding signal (z-score),Gal6P(b1-4)GlcNAc,-0.127
same,glycan array binding signal (z-score),Gal6S(b1-3)GlcNAc,-0.136
same,glycan array binding signal (z-score),Gal6S(b1-3)GlcNAc6S,-0.129
same,glycan array binding signal (z-score),Gal6S(b1-4)Glc,-0.141
same,glycan array binding signal (z-score),Gal6S(b1-4)Glc6S,-0.096
same,glycan array binding signal (z-score),Gal6S(b1-4)GlcNAc,-0.148
same,glycan array binding signal (z-score),Gal6S(b1-4)GlcNAc6S,-0.163
same,glycan array binding signal (z-score),GalNAc(a1-3)Gal,-0.139
same,glycan array binding signal (z-score),GalNAc(a1-3)GalNAc,-0.145
same,glycan array binding signal (z-score),[5],-0.158
same,glycan array binding signal (z-score),[6],-0.136
same,glycan array binding signal (z-score),[7],-0.137
same,glycan array binding signal (z-score),GalNAc(b1-3)Gal,-0.152
same,glycan array binding signal (z-score),[8],-0.142
same,glycan array binding signal (z-score),[9],-0.153
same,glycan array binding signal (z-score),[10],-0.133
same,glycan array binding signal (z-score),GalNAc(b1-3)GalNAc,-0.156
same,glycan array binding signal (z-score),GalNAc(b1-3)GlcNAc,-0.143
same,glycan array binding signal (z-score),GalNAc(b1-4)Gal(b1-4)Glc,-0.085
same,glycan array binding signal (z-score),GalNAc(b1-4)GlcNAc,-0.136
same,glycan array binding signal (z-score),[11],-0.16
same,glycan array binding signal (z-score),[12],-0.149
same,glycan array binding signal (z-score),[13],-0.134
same,glycan array binding signal (z-score),GalNAc(b1-4)GlcNAc6S,-0.141
same,glycan array binding signal (z-score),GalNAc(b1-6)GalNAc,-0.149
same,glycan array binding signal (z-score),GalNAc3S(b1-4)GlcNAc,-0.128
same,glycan array binding signal (z-score),GalNAc3S(b1-4)GlcNAc3S,-0.132
same,glycan array binding signal (z-score),[14],-0.144
same,glycan array binding signal (z-score),GalNAc4S6S(b1-4)GlcNAc,-0.157
same,glycan array binding signal (z-score),GalNAc6S(b1-4)GlcNAc,-0.134
same,glycan array binding signal (z-score),Glc(a1-4)Glc,-0.134
same,glycan array binding signal (z-score),[15],-0.106
same,glycan array binding signal (z-score),Glc(a1-6)Glc(a1-6)Glc,-0.152
same,glycan array binding signal (z-score),[16],-0.126
same,glycan array binding signal (z-score),Glc(b1-4)Glc,-0.134

# Reference: the supplement of paper PMC8728848
